The chains are these.
B1: LINE1-mini (parent)
chain: GGCAGAGCUCAACACAGCGUGGCAAAGUGGCUGUGGCUAGACUGCC

Our source for the self-cleavage values is the RNAGym collection of RNA variant scans (doi:10.7554/elife.90254).

Read counts are not given, so values of variants with three or more changes are uncertain.

The variants in the series derive from B1. Put plainly: self-cleavage, relative activity (ratio to wild type); higher = more cleavage; in vitro, sequencing; the parent is a self-cleaving ribozyme.
With GGCAGUGCUCAACACAGCGUCGCAAAGUGGCUGUGGCUAGACUCCC, the self-cleavage turned out to be 0.23.

Consider GGCAGAGCACAACACAGCGCGGCAAAGUGGUUGUGGCUAGACUGCC, for which the self-cleavage turned out to be 0.1.

As to GGCAGAGCUCAACACAGCGUGGCAACGUGGCUUUGGCUAGACCGCA, the self-cleavage worked out at 0.02.

As to GGAAGAGCUCAACAUAGCGUGGCAAAGUGGCUGUGCCUAGACUGCC, the self-cleavage worked out at 0.3.

For GGCAGAGCUCAACACAGCGUGGCAAAUUGGCUGUGGCUGGACUGAC, the self-cleavage was found to be 0.07.

For GGCGGAGCUCCACACAGGGUGGCAUAGUGUCUGUGGCCAGAGUGCC, the self-cleavage turned out to be 0.01.

CGCAGAGCUCAACACACCGUGGCAAAGUGGCUUUGGCUAGACUGCC: the self-cleavage is 0.04.

GGCAGAGCUCAACACACCGUGGCAAGCUGGCUGUGGCUAGACUGCC: the self-cleavage came to 0.13.

Consider GGCAGGGCUCAACACACCGUGUCAAAGUGGCUGUGUCUUGACUGCC, for which the self-cleavage stood at 0.03.

In the case of UGCAGAGCUCAACACAGCGAGGCAAACUGGCUGUGGUUAGACUGCC, the self-cleavage turned out to be 0.01.

GGCAGAGCUCAACACAGCGUGGCAACGUGACUGUGGAUAGACUGCC: the self-cleavage came to 0.07.

On to GGCAGAGCUCAAAACAGCGGCGCAAAGUGGCUGUGGCUAGACUGCC, for which the self-cleavage was determined as 0.06.

Turning to CAUAGAGCUCGACACAGCGUGGCAAAGUUACUGUGGCUAGAGUGCC, the self-cleavage was found to be 0.02.

For the variant GGCAGAGCUCACCACAGCGUGGCAAAGUUGCUGUGGCUAAACUGCC, the self-cleavage is 0.03.

With GGCAGAGAACAACACAGUGUUGCAAAGUGGCUGUGGCUAGACUCCC, the self-cleavage is 0.07.

Turning to GUCAGAGCUCAACACAGCGGGGCAAAGUGGCCGUGGCUAGACUCCC, the self-cleavage is 0.02.

As to GGCAGAGCUCAAAACAACGUGGCAAAGUGGCUGUGGCUAGACUCCC, the self-cleavage stood at 0.03.

Consider GGCAUAGCUCAGCACAGCGUGGCAAAGUGACUGCGGCUGGACUGCC, for which the self-cleavage was determined as 0.15.

As to GACAGCGCUCAACACAGCGUGGCAAAGUAGCUGUGGCUAGAAUGCC, the self-cleavage turned out to be 0.19.

As for GGCAGAGCUCAACAAAGCGUCGCAAAGUGGCUGUGGCAAGACUUCC, the self-cleavage is 0.03.

CGCCGAGCUCAACACAGCGGAGCAAAGUGGCUGUGGCUAAACUGCC: the self-cleavage is 0.03.

Turning to GACAGCGCUCAACACAGCGUGGCAAAGGUGUUGUGGCUAGACUGCC, the self-cleavage was 0.03.

Take GGCAGAGCCCAACACAGCGUGGCAAAGUGGCUGUGGAUAUACUGCC: the self-cleavage came out at 0.05.

As for GGCAGAGCUCAACACAGUGUGGGAAAGUGACUGUGGCUAGACUGCC, the self-cleavage was determined as 0.16.

In the case of GGCAGAGCUCAGCACAGCGGGGCAAACAGGCUGUGGCUAGACUGCC, the self-cleavage came out at 0.01.

On to GGCAGGGCUCAACACAGCGUUGAAAAGUGGCUGUGGCUAGACUGCG, for which the self-cleavage was determined as 0.27.

Turning to GGCAGAGCUCAACACAGUUUGGUAAAUUGGCUGUGGCUAGACUGCC, the self-cleavage came out at 1.44.

Consider GGCAGAGCUCAACACAGCGUGGCAAAGUGGCUGUGGCUACACUUAC, for which the self-cleavage was 0.

Consider GGCCGAACUCAACACAGCGUGGCAAAGUAGCUGUGGCUAGAUUGCC, for which the self-cleavage is 0.17.

As to GGCAGAGCUCAAUACAGCGUGGCAAGGUGGCGGUGGCUAGACUGCC, the self-cleavage stood at 0.15.

Regarding GGCAGGGCUCAACACUGCGUCGCAAUGUGGCUGUGGCUAGACUGCC, the self-cleavage was 0.02.

For GGCAGAGCUCAACUCAGCGUGGCAAAGUGGCAGUGGCUAGAAUGCC, the self-cleavage was determined as 0.07.

CGCAGAGCUCAACACAGCGGGGCAAAGUGACUGUGUCUAGACUGCC: the self-cleavage turned out to be 0.

In the case of AUCAGGGCUCAACACAGCGUGGCAAAGUGGUUGUGGCUAGACUGAC, the self-cleavage came to 0.02.

GGCAGAGCUCAGCACAGGGUGGCAAAGUCGCUGUGGCUAGACUGCC: the self-cleavage is 0.04.

In the case of CGCAGAGCUCAACACAGCGUGGCAAAGUGGCUAUGGCUAGAAUGCC, the self-cleavage was 0.

As for GGCAGAGCUCAAUACAGCGGGGCAAAGUUGCUUUAGCUAGACUGCC, the self-cleavage was 0.07.

With AGCAGAGCUCAACACAGCGUUGCAAAGUCGCUGUGGCUAGACUGCC, the self-cleavage is 0.07.

As to GGCACAGCACAACACAGCGUGGCAAAGUCACUAUGGCUAGAGUGCC, the self-cleavage was 0.2.

Regarding GGCAGAACACAACACAACGUGGCAAAUUGGAUGUGGCUAGACUGCC, the self-cleavage was determined as 0.5.

For GGGAGAGCUCAACUCCGCGUGGCAGAGUGGCUGUGGCUAGACUGCC, the self-cleavage is 0.2.

AGCAGAGCGCAACACAGCGUGGCAAAGUGGCUGUGGCUAAACUGCC: the self-cleavage was 0.08.

For GGCAGAGCUCAACACAGCGUGGCACAGUGGCUGUGGUCAUACUGCC, the self-cleavage worked out at 0.02.

Take GGCAGACCUCAACACAGCGUGGCAAAGUGUCUGUGACUAGACUGCC: the self-cleavage was determined as 0.12.

For GGCCGAGCUCAACACAGUGUGGCAAAGUGGCUGUGGCUAGACUUUC, the self-cleavage was determined as 0.06.

For GGCAGAGCUCAACACAGAGUGGCAAGGUGGCCGUGGCUAGGCUGCC, the self-cleavage was determined as 0.

For GGCAGAGCUCAGCACAGCGUGGCAAAGCGUCUGCGGCUAGACUGCC, the self-cleavage was 0.02.

With UGCAAAGCUCAACACAGCGUGGCAAAGUAGCUGUGGCUAGACUGCC, the self-cleavage amounted to 0.41.

Regarding GGCCGAGAUCAACACAGCGUGGCAAAGUGGCUGUAGCUAGACUGCC, the self-cleavage was found to be 0.93.

Consider GGCAGAGCUCAACACAGCGUGGACAAGUGGCUGUGGGUAGACUGCA, for which the self-cleavage stood at 0.02.

For GGCCGAACUCAACACAGCGUGGCAAAGUGGUUGUGGCGAGACUGCC, the self-cleavage was 0.08.

Regarding GGCAGAGCUCAACAUAGCGUGGCAAAGCGGCUGUGGCUAUACUGCC, the self-cleavage worked out at 0.2.

Consider GGCAAAGCCCAAUACAGCGUUGCAAAGUGGCUGUGGCUAGACUGCC, for which the self-cleavage stood at 0.05.

For the variant GGCAGAGCCCAACACAGCGUGGCAAAGUGGCUGUGGCUAGCCUUCC, the self-cleavage turned out to be 0.04.

In the case of GACAGAACUCGACACAGCGUGGCCAAGUGGCUGUGGCUGGACUGCC, the self-cleavage amounted to 0.03.

Regarding GGAAGCGCUCAACACAGCGAGGCAAAGUGGCUGUGGCUAGACUGCC, the self-cleavage amounted to 0.35.
